Measured values published in paper PMC12040169 (PLOS Biology, 2025).
Some of the results follow.

system: T1, C. trachomatis L2/434/Bu expressing GFP (CTL2-GFP); set-up: species or system HeLa; C. trachomatis total inclusion area by high-content imaging, normalised to DMSO; settings: total inclusion area; 28.5 h, 10 µM; inhibitor
T1 construct: L2/434/Bu GFP intracellular growth in HeLa cells
In short: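 High-content images of fixed, Hoechst-stained infected cultures supply inclusion area and count (growth) plus nuclei number (viability), complementing bulk GFP/resorufin fluorescence. MIC determination is unchanged from the primary assay.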

| Compound | % of control remaining |
| --- | --- |
| CCc1nn(CC(=O)NC2CC2)c(=O)c2cc3sccc3n12 [CBK284029] | 70.9275 |
| COc1ccc(NC(=O)c2cn(C)nc2CC2CCN(CCc3ccccc3)CC2)cc1 [CBK285559] | 86.2369 |
| CC(C)N1CCN(Cc2c(C(F)(F)F)[nH]c3ncccc23)CC1 [CBK285354] | 101.829 |
| CCN(Cc1ccncc1)C(=O)NCCOc1ccccc1 [CBK155148] | 118.146 |
| CCCNC(=O)c1nn2c(c1Cl)NC(c1cccs1)CC2C(F)(F)F (stereo not drawn) [CBK307177] | 86.6143 |
| O=C(CC1(C(F)(F)F)NCCN1)c1ccco1 [CBK022373] | 99.8267 |
| CN(C)c1ccc(-c2nccnc2NS(=O)(=O)c2ccc3ccccc3c2)cc1 [CBK050794] | 100.17 |
| CN(Cc1ccccc1N1CCOCC1)C(=O)c1ccc2ncsc2c1 [CBK296692] | 111.63 |
| Cn1cc(-c2nccnc2OCCN2CCCC2=O)cn1 [CBK107068] | 101.168 |
| Cc1ccc(N2C(=O)c3ccc(C(=O)c4ccc(C(=O)O)cc4)cc3C2=O)cc1 [CBK287164] | 99.3048 |
| O=C(c1ccc(-n2ccnc2)c(-n2cccc2)c1)N1CCCCCC1 [CBK284813] | 112.636 |
| c1ccc(COc2ccc(-c3cc(Nc4ccc5[nH]ccc5c4)ncn3)cc2)cc1 [CBK090857] | 76.4861 |
| Cc1ccc(S(=O)(=O)NCCSc2ccc(Cl)cc2)cc1[N+](=O)[O-] [CBK264126] | 73.4818 |
| Cc1c(S(=O)(=O)Nc2cc(C(F)(F)F)ccc2N2CCOCC2)cnn1-c1ccccc1 [CBK062551] | 93.0454 |
| c1ccc(Cn2c(CN3CCCCC3)nc3ccccc32)cc1 [CBK269237] | 71.4315 |
| COc1ccc(Cl)cc1NC(=O)C1CN(S(=O)(=O)c2ccccc2)CCN1S(=O)(=O)c1ccccc1 (stereo not drawn) [CBK264000] | 103.667 |
| COc1ccc(Cl)cc1N1CCN(Cc2ccc(OC(F)(F)F)cc2)CC1 [CBK126405] | 88.8991 |
| Cn1ncc2c1CCCC2NC(=O)N(CCO)Cc1ccccc1 (stereo not drawn) [CBK306293] | 60.7574 |
| CCOc1cc(C(=O)O)ccc1OCCOc1cccc(C)c1 [CBK299781] | 85.3242 |
| Cc1cc(CC(=O)Nc2ccc3[nH]ccc3c2)on1 [CBK159690] | 94.3033 |
| Nc1nc(CSc2nnc(-c3ccccc3O)n2Cc2ccccc2)cs1 [CBK267394] | 111.243 |
| CC(C)C[C@H](NC(=O)OC(C)(C)C)C(=O)NC[C@H]1CC[C@H](C(=O)O)CC1 [CBK286750] | 110.808 |
| Cc1c(NC(=O)C2CN(S(=O)(=O)c3ccccc3)CCN2S(=O)(=O)c2ccccc2)c(=O)n(-c2ccccc2)n1C (stereo not drawn) [CBK264138] | 118.281 |
| NCCCNc1ncc(C(=O)NCc2ccccc2)c(NCC2CCCCC2)n1 [CBK215386] | 38.7516 |
| CSc1nc(N/N=C/c2ccc(Cl)cc2)c2c3c(sc2n1)CN(C)CC3 [CBK262588] | 100.288 |
| O=C(Nc1cc(-c2nc3ncccc3o2)ccc1Cl)c1ccco1 [CBK269730] | 104.498 |

| Compound | % of control remaining |
| --- | --- |
| CCc1ccc(CNC(=O)Cn2nnc(-c3ccc(C(C)N4CCC(C)CC4)cc3)n2)cc1 (stereo not drawn) [CBK164199T] | 77.8693 |
| Cc1c(C(=O)O)sc2nc(SC/C=C/c3ccccc3)nc(N)c12 [CBK300523] | 90.373 |
| COc1ccc(CN2CCCN(c3nccc(OCc4cc(C)on4)n3)CC2)cc1 [CBK083911] | 57.8146 |
| O=C(NCc1ccc(Cl)cc1)c1cn(-c2ccccc2)c2ccc(CN3CCOCC3)cc2c1=O [CBK018481] | 56.982 |
| CC(NS(=O)(=O)c1ccc(OCC(=O)N2CCc3ccccc3C2)c(Cl)c1)c1ccccc1 (stereo not drawn) [CBK269117] | 110.99 |
| O=C(/C=C/c1ccccc1Cl)NCCc1ccccc1 [CBK261794] | 105.234 |
| CCOc1ccc(C(=O)N2CC(C(N)=O)CCC2C)cn1 (stereo not drawn) [CBK305770] | 125.419 |
| CC1CCCN(C(=O)CN2C3CCC2CC(O)(c2ccco2)C3)C1 (stereo not drawn) [CBK284095] | 99.1077 |
| COc1nccc(N2CCN(C(=O)C3CC3)CC(O)C2)c1C#N (stereo not drawn) [CBK306613] | 38.4595 |
| CC(=O)N1CCc2c([nH]c3ccccc23)C12CCCN(CCC#N)C2 (stereo not drawn) [CBK039665] | 109.73 |
| Cn1ccnc1C(NC(=O)N1CCCC1)c1ccc(F)c(F)c1 (stereo not drawn) [CBK283782] | 86.8051 |
| Cc1ccc(-c2nnc(-c3cccc(NC(=O)CSCc4ccc(Cl)cc4)c3)o2)cc1 [CBK266789] | 113.713 |
| COc1cc(C(=O)O)cc2c1NC(c1ccc(C(=O)O)cc1)C1CC=CC21 (stereo not drawn) [CBK287018] | 80.3934 |
| COc1ccc(C(=O)N2CC[C@H]3NC(=O)N(c4ccc(F)cc4)C(=O)[C@H]32)cc1 [CBK289325] | 127.901 |
| O=C(Cn1ccc(=O)[nH]c1=O)NCc1cccnc1OCC(F)(F)F [CBK304565] | 69.3111 |
| Clc1cc(N2CCCC2)ncn1 [CBK083597] | 83.4774 |
| COC(=O)CCc1ccc(S(=O)(=O)N2CCCN(Cc3c[nH]c4ccc(Cl)cc34)CC2)cc1 [CBK063000] | 73.6256 |
| CC(=O)c1ccc(-c2ccc(C(=O)NCC3COc4ccccc4O3)c(NCc3cccnc3)n2)s1 (stereo not drawn) [CBK076608] | 128.038 |
| Cc1nnc(Sc2nc3ccccc3nc2C(F)(F)F)s1 [CBK093774] | 106.564 |
| CC(=O)Nc1cccc(NC(=O)c2cc(-c3ccccn3)nc3ccc(Cl)cc23)c1 [CBK267747] | 119.512 |
| CN(C)C(=O)c1ccc(-c2cnc(OCC3CCN(C(=O)OC(C)(C)C)CC3)cn2)cc1F [CBK175076] | 143.76 |
| CCn1c(=O)n(CC(=O)Nc2ccccc2F)c2cccnc21 [CBK283897] | 117.032 |
| CC1Cc2cc(-c3cn4ccccc4n3)ccc2N1S(C)(=O)=O (stereo not drawn) [CBK285194] | 102.974 |
| CCCc1occc1C(=O)N1CCOCC1C(=O)O (stereo not drawn) [CBK304151] | 30.7973 |
| CN1CCN(CCOC(=O)N2CCN(c3cccc(C(F)(F)F)c3)CC2)CC1 [CBK115940C] | 83.3606 |
| CC(=O)N(c1ccc2oc3c(c2c1)CCCC3)S(=O)(=O)c1ccc(C(=O)O)cc1 [CBK299808] | 108.025 |

| Compound | % of control remaining |
| --- | --- |
| Cn1c(=O)[nH]c(=O)c2c1nc(N1CCOCC1)n2CC(O)COc1ccc(I)cc1 (stereo not drawn) [CBK262438] | 109.697 |
| CC1CCCCN1CC(=O)N(C)C(C)COc1ccc(Cl)cc1 (stereo not drawn) [CBK023201] | 0.06955 |
| Cc1noc(C)c1NC(=O)c1cccn1C [CBK200304] | 120.041 |
| O=C(NC[C@H]1CC[C@H](c2nnc(-c3ccsc3)o2)CC1)C1CCC1 [CBK283363] | 96.294 |
| OC(CN1CCN(c2cccc(Cl)c2)CC1)Cn1c2ccccc2c2ccccc21 (stereo not drawn) [CBK264333] | 89.9054 |
| CN(C)CCCNC(=O)C1CCN(c2cncc(-c3ccc(O)cc3)n2)CC1 [CBK126929T] | 117.463 |
| Cc1cnn(CCCNC(=S)Nc2ccc(S(N)(=O)=O)cc2)c1 [CBK266957] | 115.98 |
| CCc1cc(NC[C@@H](O)CO)nc(-c2ccc(F)c(Cl)c2)n1 [CBK132880] | 50.9295 |
| O=C(CN1CCOCC1)NC1(c2ccccc2)CCCCC1 [CBK059545C] | 82.5732 |
| Cc1cccn2cc(CC(=O)OCC(=O)NC(C)(C)C)nc12 [CBK304966] | 116.364 |
| CN(C(=O)Cn1c(=O)n(C)c2ncccc21)C1CCCCC1 [CBK283791] | 105.617 |
| COc1ccc(S(=O)(=O)N2CCC(C(=O)O)CC2)cc1Cl [CBK267162] | 109.805 |
| COc1ccc(S(=O)(=O)N2CCN(C(=S)Nc3ccc(S(N)(=O)=O)cc3)CC2)cc1 [CBK266898] | 116.442 |
| CCN(CC)CCn1c2ccccc2c2nc(C)sc21 [CBK266628C] | 116.196 |
| CC(OC(=O)C1CCCCC1)c1nc2ccccc2[nH]1 (stereo not drawn) [CBK111483] | 83.0408 |
| O=C(c1cccc2[nH]ccc12)N1CCN(CCc2ccccc2)CC1 [CBK200203] | 95.9229 |
| CC(C)(C)C(C#N)C(Oc1ccc(Cl)cc1)n1cncn1 (stereo not drawn) [CBK023570] | 32.5751 |
| CCn1cnnc1C1CCN(C(=O)c2ccc(C)c(Cl)c2)CC1 [CBK303997] | 86.0242 |
| COCCN1C(=O)/C(=C2/C(=O)N(CC(=O)Nc3ccccc3)c3ccccc32)SC1=S [CBK264489] | 111.267 |
| CCN(CC)CC(=O)Nc1ccccc1OC [CBK266213C] | 102.903 |
| O=C1CC(c2ccccc2)CC(=O)C1=CNCCN1CCOCC1 (stereo not drawn) [CBK262522] | 93.0461 |
| Cc1nc(NS(=O)(=O)c2cc(Cl)sc2Cl)sc1C(=O)N1CCN(C)CC1 [CBK045818] | 92.1847 |
| O=C(COc1ccccc1)NC(=S)Nc1cc(-c2nc3ncccc3o2)ccc1Cl [CBK264380] | 116.505 |
| CN(CCCN1CCC(C(=O)NC(c2cccnc2)c2ccc3c(c2)OCO3)CC1)S(C)(=O)=O (stereo not drawn) [CBK148505] | 103.409 |
| Cc1cc(C)nc(-n2ncc(C#N)c2NC(=O)c2ccccc2)n1 [CBK288135] | 91.9828 |
| Cc1cc(CN(C)Cc2cnn(-c3ccc(Cl)cc3)c2)n[nH]1 [CBK281912] | 84.5007 |
